# Source: the RNAGym collection of RNA variant scans (doi:10.1073/pnas.2313332121)
# This sample is rich in variants without activity.
# B1: TPR 5TU (parent)
# chain: GGAUCUUCUCGAUCUAACAAAAAAGACAAAUCUGCCACAAAGCUUGAGAGCAUCUUCGGAUGCAGAGGCGGCAGCCUUCGGUGGCGCGAUAGCGCCAACGUUCUCAACUAUGACACGCAAAACGCGUGCUCCGUUGAAUGGAGUUUAUCAUG
# Variants of: B1
# Test: polymerase ribozyme fitness, log enrichment relative to wild type (log ratio); higher = more active; in vitro selection for triplet polymerase activity
# Method in brief: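 The heterodimeric triplet polymerase ribozyme's subunits were each mutagenized into PCR-built libraries and transcribed. Every library was selected once, in triplicate, by annealing with a biotinylated primer, the partner subunit and triplets, incubating frozen at −7 °C, gel-excising extended constructs, capturing on streptavidin beads and running RT-PCR. Input and output libraries were Illumina-sequenced, with genotypes kept only at ≥10 input reads and ≥1 read per output. Fitness, from inverse-variance-weighted replicate averages, is the base-2 logarithm of genotype enrichment over wild-type enrichment.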
row,Variant,polymerase ribozyme fitness (log ratio)
1,A30C A47U C57A C76G G86A C114A,≤ -4.2
2,A30C C57U G81C C87G A97U U109G G141A,≤ -4.2
3,A30C A52C C85U C99A A115U C131U G141C,≤ -4.2
4,A30U U53A,-3.18
5,A30U G42C U55G G83C C87U A91C,≤ -4.2
6,A30G A66G C108G,≤ -4.2
7,U31A A66C G67C G88A G141A U146G,≤ -4.2
8,A30U G58U G92C C96G G117A C123G,≤ -4.2
9,A30U A52G C54A C69U C75G G86C,≤ -4.2
10,A30C U56C G58C G80C A89U A110U U148A,≤ -4.2
11,A30G G86A,-3.45
12,A30G G74A C76U C95A A138C G141A,≤ -4.2
13,A30U U55A G74A C79U C87A C116A,≤ -4.2
14,A29U U55G C57U G67C A98G,≤ -4.2
15,A30U U45A U134G U145G,≤ -4.2
16,A30G A60U C85A C95A C96A C125U A150C,≤ -4.2
17,A30U G68U A73U G140U,≤ -4.2
18,A30C C87U C99G G143U A150G G152C,≤ -4.2
19,A30C G81U C93A C99G A110G A120U C123A G124A U135A,≤ -4.2
20,A30G G46U G68U A147C,≤ -4.2
21,A30G A91U A120G,≤ -4.2

row,Variant,polymerase ribozyme fitness (log ratio)
1,A30C A41G C51U U55A C85G,≤ -4.2
2,A30U C43U G74A C93G U104G G143A U151A,≤ -4.2
3,A30G C79U G124U U135A,≤ -4.2
4,A30U G46A A73G G83A A89G C105G A107U,≤ -4.2
5,A30G U101A G124U C129A,≤ -4.2
6,A30U A47C C85G U90G A115C,≤ -4.2
7,A29U U78A C118U A142C,≤ -4.2
8,A30C U33C G67A C93G A119U,-3.89
9,A30U U55A G67A A73G C96U,≤ -4.2
10,A30U G70A,≤ -4.2
11,A30U G70U,≤ -4.2
12,A30U G62C G92C,≤ -4.2
13,A30G U78A,≤ -4.2
14,A30U U61A C85G C95G A113C A115G,≤ -4.2
15,A30C U33A G68U A73U C95A C114A A121G,≤ -4.2
16,A30U U55G C57A C93U,-4.13
17,A30G G42U G50A C75U G86A C95U U144A,≤ -4.2
18,A30C G84A G100A U130G G141U,≤ -4.2
19,A30U A52C G67A G68A C87U A91G C95G U127C G143U U148G,≤ -4.2
20,U31A A40G U44G G141C,-4.06
21,A30U G70A C95G C103G G133U,≤ -4.2

row,Variant,polymerase ribozyme fitness (log ratio)
1,A30U C72A C87U A121G,≤ -4.2
2,A30G C54A C87A,≤ -4.2
3,A30U A49G C51A C54U C76U G88U C96A,≤ -4.2
4,A30C C79U A91G C114U G136C,≤ -4.2
5,A30G U53G U61A G92A,≤ -4.2
6,A30G C38U A73G G141A,≤ -4.2
7,A30G C85U A150G,≤ -4.2
8,A30U C38U C75U,≤ -4.2
9,A30G C105U C116U U134G,≤ -4.2
10,A30C U53A U78G G84U A137G,≤ -4.2
11,A30C C63U A66C A73U C85A A91C U109G,≤ -4.2
12,A30U A73G C79U G83C G84A C85U A137G G143U,≤ -4.2
13,A30U A60U C99U A106U G141C A150C,≤ -4.2
14,A30C C75U C114U G126A G141C,≤ -4.2
15,A30C U44C C85U A89U U135A,≤ -4.2
16,A30C C54G C87U,≤ -4.2
17,A30U G48C C96U A120C U145C C149G,≤ -4.2
18,A30G C32A C43A C93A C105A,≤ -4.2
19,A30G G46A U148C G152U,≤ -4.2
20,A30G G80C,≤ -4.2
21,A30U G68U G92A A98G C99U G140U U144A,≤ -4.2

row,Variant,polymerase ribozyme fitness (log ratio)
1,A30G G42C C72U A89G A115G,≤ -4.2
2,U31A C35U G68C C79A G84A C103G C105A,≤ -4.2
3,A29U U55A C114U A137U U139G A150C,≤ -4.2
4,A30U C35U G84A,-4.19
5,A30C C87U U104G U111C,≤ -4.2
6,A30U G42A C76G,≤ -4.2
7,A30U U134C,-3.45
8,A29U U101G U104G,≤ -4.2
9,U31A A89C,-0.512
10,A30U G48C G50A G80A G100C A147C,≤ -4.2
11,A30U A52C G83C,≤ -4.2
12,A30G C51U A52C U53G C54A G58U C76G,≤ -4.2
13,A30U C54A G83C G136C,≤ -4.2
14,A29U U53A U102G G126A,≤ -4.2
15,A30U G46U U55A G59A A91G G140A,≤ -4.2
16,A30U G48C C51U A52G U77C A119U G124C G141C,≤ -4.2
17,A30C G42A C54U G58A U90G C93G C96U C125A U148A,≤ -4.2
18,A30C G42A G80U G88U C93G C96G,≤ -4.2
19,A30G C38G C57A A66C C95A,≤ -4.2
20,A29U U78G C79U G83C A98G G124U G141C,≤ -4.2
